The molecules below were run against PRMT5/MEP50 Complex (Homo sapiens (Human), UniProt O14744) (assay: PRMT5 inhibition based on TR-FRET assay). Conditions: 32 nM PRMT5:MEP50, 50 nM Histone-H4 peptide, 1 μM SAM.
Format: biochemical
Text: PRMT5 Inhibition Based on TR-FRET Assay:
Protein arginine methyltransferase 5 (PRMT5) is a type II arginine methyltransferase that catalyze mono- and symmetric demethylation on arginine residues of histone or non-histone proteins in presence of S-adenosylmethionine (AdoMet or SAM) a cofactor responsible for donating the methyl group. PRMT5 is reported to be overexpressed in several human cancers. To identify compounds that inhibit the PRMT5 and decrease its activity, a TR-FRET based assay has been established. Time-resolved fluorescence resonance energy transfer (TR-FRET) HTS assays are homogeneous proximity assays where the interaction of two dye-labeled binding partners is detected by the energy transfer between a donor and an acceptor dye and the subsequent light emission by the acceptor dye. PRMT5 catalyzes Histone H4 peptide which is biotin tagged to the Lysine amino acid at carboxyl end, in presence of S-adenosyl-1-methionine (SAM) to methylate the peptide. The antibody specific to mono methylated H4 peptide (H4R3) with Ig conjugate binds to the methylated peptide, indirectly binding to the Europium lanthanide. SureLight Allophycocyanin-Streptavidin binds to the biotin tag of the peptide, therefore accepting the energy transferred from the Europium lanthanide. This energy transfer between Europium to SureLight Allophycocyanin is a direct measure of the activity/inhibition of the PRMT5 enzyme.
Assay buffer: 20 mM BICINE (pH 7.6), 25 mM NaCl, 2 mM DTT, 0.01% Tween-20 and 0.01% BSA.
The compound dilutions were prepared as 7.5% DMSO stock solutions in assay buffer. To 2 μL (7.5×) of test compound, 5 μL of PRMT5 enzyme prepared in assay buffer (Final concentration of 32 nM in 15 μL reaction volume) was added and allowed for 30 minutes pre-incubation time in a white polystyrene 384-well plate at room temperature. […] The plates were then read on Victor-3 with Excitation at 340 nm and Emissions collected at 615 and 665 nm in TR-FRET protocol. […]

UniProt O14744, sequence (O14744 whole entry): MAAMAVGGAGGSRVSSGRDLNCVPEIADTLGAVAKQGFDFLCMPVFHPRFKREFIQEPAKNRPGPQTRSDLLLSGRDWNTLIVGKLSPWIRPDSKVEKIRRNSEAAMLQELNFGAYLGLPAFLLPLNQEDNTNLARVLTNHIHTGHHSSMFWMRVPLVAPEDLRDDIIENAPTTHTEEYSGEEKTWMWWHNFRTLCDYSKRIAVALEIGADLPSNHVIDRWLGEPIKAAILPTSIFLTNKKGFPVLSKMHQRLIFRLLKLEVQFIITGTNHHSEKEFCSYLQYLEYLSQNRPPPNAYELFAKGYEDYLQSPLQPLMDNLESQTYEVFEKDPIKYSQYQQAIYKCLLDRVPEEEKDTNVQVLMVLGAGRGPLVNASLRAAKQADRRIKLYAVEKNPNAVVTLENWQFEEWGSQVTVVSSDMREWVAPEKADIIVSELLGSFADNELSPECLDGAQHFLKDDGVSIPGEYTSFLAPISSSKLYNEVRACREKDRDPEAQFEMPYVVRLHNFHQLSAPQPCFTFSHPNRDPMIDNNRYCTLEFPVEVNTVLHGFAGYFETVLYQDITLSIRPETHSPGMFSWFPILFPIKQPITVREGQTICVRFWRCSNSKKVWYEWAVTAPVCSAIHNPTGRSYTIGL
UniProt O14744, sequence (Q9BQA1 whole entry partner): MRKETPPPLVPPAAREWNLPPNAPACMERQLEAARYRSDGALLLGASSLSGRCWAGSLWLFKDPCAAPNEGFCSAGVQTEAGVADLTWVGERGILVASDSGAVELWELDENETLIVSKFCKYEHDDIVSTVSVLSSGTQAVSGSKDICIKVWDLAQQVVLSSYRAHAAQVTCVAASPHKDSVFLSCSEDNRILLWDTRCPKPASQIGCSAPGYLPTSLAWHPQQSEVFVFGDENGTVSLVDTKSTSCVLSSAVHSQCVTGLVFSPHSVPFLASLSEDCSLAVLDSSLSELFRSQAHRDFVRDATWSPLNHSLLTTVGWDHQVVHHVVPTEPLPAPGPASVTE

| SMILES | IC50 |
| --- | --- |
| N#Cc1ccc(N2CCN(CC(O)CN3CCc4ccccc4C3)C2=O)cc1 (stereo not drawn) [Example 33, 4-(3-(3-(3,4-dihydroisoquinolin-2(1H)-yl)-2-hydroxypropyl)-2-oxoimidazolidin-1-yl)benzonitrile] | 0.21 µM |
| CC(C)c1ccc(CN2CCN(CC(O)CN3CCc4ccccc4C3)C2=O)cn1 (stereo not drawn) [Example 28] | 0.13 µM |
| CC(=O)c1ccc(CN2CCN(CC(O)CN3CCc4ccccc4C3)C2=O)cn1 (stereo not drawn) [Example 32, 1-((6-Acetylpyridin-3-yl)methyl)-3-(3-(3,4-dihydroisoquinolin-2(1H)-yl)-2-hydroxypropyl)imidazolidin-2-one] | 2.1 µM |

From patent US11365205B2 (Aurigene Discovery Technologies Limited, priority 2018, dated 2022)
